We go through 54 sequences from the supplement of paper PMC10338343.

± gives the standard deviation. Only a part is listed here, and it is no random draw.

The test system of the assay is MIWI (PIWIL1) piRISC loaded with L1MC piRNA (30 nt). Put plainly: pre-steady-state target cleavage rate (min^-1); MIWI and MILI are mouse PIWI proteins and EfPiwi is from a freshwater sponge; tags in brackets are library labels; higher = faster piRNA-guided slicing of the target. The note with it: guide: L1MC piRNA 5'p-UAACUAAAUACUAUGCAAGCUGUAGGUCCU
The gist of the method:
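The pre-steady-state cleavage rate was obtained by Cleave-'n-Seq with a burst-and-steady-state fit. A transcribed, DNA-blocked target RNA library (0.1 nM) was mixed with 1 nM active affinity-purified piRISC carrying one synthetic guide, with or without 500 nM GTSF1 partner protein, in HEPES–potassium acetate buffer at 33 °C for 0–8 or 0–960 min. Uncleaved targets were sequenced and normalised to depth and to weakly complementary targets, with three trials pooled and k3 capped at 0.0001 min^-1.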

Where [1] appears, read: auxiliary factor: 500 nM mouse GTSF1.
Where [2] appears, read: auxiliary factor: none (no GTSF1).

Take UCCUGGUACAGCUUGGAUAGUAUUUAGUUA: the “pre-steady-state target cleavage rate” value under setting [1] is 0.485 ± 0.062 and the “pre-steady-state target cleavage rate” value under setting [2] was determined as 0.0337 ± 0.0046.

Take UCCUGGAACAGCUAGCAUAGUUUUUAGUUA: the “pre-steady-state target cleavage rate” value was 0.251 ± 0.021 under setting [1] and 0.0141 ± 0.0041 under setting [2].

As to UGGACCUACAGCUUGCAUAGAAUUUAGAAA, the “pre-steady-state target cleavage rate” value under setting [1] was 0.293 ± 0.04 and the “pre-steady-state target cleavage rate” value under setting [2] is 0.00777 ± 0.003.

Take UCGACCUACAGCUUGCUUAGUAUUUAGAUA: the “pre-steady-state target cleavage rate” value by setting is: under setting [1], 0.379 ± 0.032; under setting [2], 0.0129 ± 0.0033.

Regarding ACGACCUACAGCUUGCAUUGUAUUUAGUUA, the “pre-steady-state target cleavage rate” value reads like this: under setting [1], 1.17 ± 0.049; under setting [2], 0.045 ± 0.0091.

As for UCCACCUACAGCUUGCAAAGUAUAUAGUUA, the “pre-steady-state target cleavage rate” value under setting [1] came out at 0.468 ± 0.045 and the “pre-steady-state target cleavage rate” value under setting [2] is 0.0135 ± 0.0031.

Turning to UCGACCUACAGCUUGCAUUGUAUUUAGAUA, the “pre-steady-state target cleavage rate” value is, setting by setting: under setting [1], 0.39 ± 0.036; under setting [2], 0.0102 ± 0.003.

With UCGACCUACAGCUUGCAUUGUAAUUAGUUA, the “pre-steady-state target cleavage rate” value reads like this: under setting [1], 0.48 ± 0.027; under setting [2], 0.0109 ± 0.003.

For AGGAGCUACAGCUUGCAAAGUAUUUAGUUA, the “pre-steady-state target cleavage rate” value turned out to be 1.15 ± 0.065 under setting [1] and 0.0443 ± 0.0091 under setting [2].

Regarding UCCAGGAACAGCUUGCAUAGUAUUUAGAAA, the “pre-steady-state target cleavage rate” value is, setting by setting: under setting [1], 0.359 ± 0.043; under setting [2], 0.0116 ± 0.0031.

As to UCCUGGAUGUGCUUGCAUAGUUUUUUGUUA, the “pre-steady-state target cleavage rate” value is 0.0135 ± 0.0056 under setting [1] and 0.00432 ± 0.0033 under setting [2].

As for AGGACCUACAGCAUGCAUAGUUUUUAGUUA, the “pre-steady-state target cleavage rate” value under setting [1] worked out at 0.402 ± 0.026 and the “pre-steady-state target cleavage rate” value under setting [2] is 0.0219 ± 0.0042.

For the sequence UGGACCUACAGCUAGCAUAGUAUUUAGUAA, the “pre-steady-state target cleavage rate” value runs as follows: under setting [1], 1.08 ± 0.065; under setting [2], 0.016 ± 0.0033.

UGGACCAACACCUUGCAUAGUAUUUAGUUA: the “pre-steady-state target cleavage rate” value under setting [1] was 1.07 ± 0.044 and the “pre-steady-state target cleavage rate” value under setting [2] turned out to be 0.05 ± 0.0097.

Regarding AGGAGGAACAGCUUGCAUAGUAUUUAGUUA, the “pre-steady-state target cleavage rate” value is, setting by setting: under setting [1], 1.41 ± 0.065; under setting [2], 0.0955 ± 0.019.

With AGGACCUACAGGAAGCAUAGUAUUUAGUAA, the “pre-steady-state target cleavage rate” value reads like this: under setting [1], 0.683 ± 0.067; under setting [2], 0.00458 ± 0.0026.

With UCCUGCUACAGCUUGCAAAGAAUUUAGUUA, the “pre-steady-state target cleavage rate” value worked out at 0.234 ± 0.021 under setting [1] and 0.0127 ± 0.005 under setting [2].

With UGGACCUUGAGCUUGCAUAGUAUUUUCAAA, the “pre-steady-state target cleavage rate” value reads like this: under setting [1], 0.0876 ± 0.019; under setting [2], 0.00307 ± 0.0023.

As for UCCACCUACAGCUGCAUAGUAUUUAGUUA, the “pre-steady-state target cleavage rate” value was determined as 0.815 ± 0.04 under setting [1] and 0.0053 ± 0.0024 under setting [2].

For UCCUGCUACAGCUGUGCAUAGUAUUUAGUUA, the “pre-steady-state target cleavage rate” value worked out at 0.751 ± 0.061 under setting [1] and 0.0113 ± 0.0029 under setting [2].

Consider UCCUGGAUCAGGUUGCAUAGUAUUUAGAAA, for which the “pre-steady-state target cleavage rate” value under setting [1] is 0.12 ± 0.028 and the “pre-steady-state target cleavage rate” value under setting [2] worked out at 0.00268 ± 0.0021.

In the case of UCCUGGAACAGCUUGCAUAGUAUCUUAGUUA, the “pre-steady-state target cleavage rate” value is 0.777 ± 0.046 under setting [1] and 0.0258 ± 0.0072 under setting [2].

On to UCCACCUUCAGCAUGCAUAGUAUUUAGUUA, for which the “pre-steady-state target cleavage rate” value is, setting by setting: under setting [1], 0.858 ± 0.037; under setting [2], 0.0222 ± 0.0045.

Regarding “AGGACCUACAGCUUGCAUAGUAUUUUCAAA [g6:g30:cont:t1A]”, the “pre-steady-state target cleavage rate” value is, setting by setting: under setting [1], 0.39 ± 0.05; under setting [2], 0.00572 ± 0.0041.

AGGACCUACAGCUUGCAUAGUAUUUUGUUA: the “pre-steady-state target cleavage rate” value under setting [1] amounted to 0.949 ± 0.064 and the “pre-steady-state target cleavage rate” value under setting [2] was found to be 0.0718 ± 0.016.

For UCGACGAUCAGCUUGCAUAGUAUUUAGUAA, the “pre-steady-state target cleavage rate” value by setting is: under setting [1], 1.05 ± 0.063; under setting [2], 0.048 ± 0.011.

In the case of “AGGACCUACAGCUUGCAUAGUAUUUAGUUU [g2:g30:cont:t1U]”, the “pre-steady-state target cleavage rate” value reads like this: under setting [1], 1.64 ± 0.079; under setting [2], 0.165 ± 0.036.

Take UGGUCCUACAGCAUGCAUAGUAUUUAGUUA: the “pre-steady-state target cleavage rate” value was 1.19 ± 0.061 under setting [1] and 0.0657 ± 0.014 under setting [2].

Turning to UCCUGGAUCAGCUUGCAUUCUAUUUAGUUA, the “pre-steady-state target cleavage rate” value is, setting by setting: under setting [1], 0.052 ± 0.0078; under setting [2], 0.00824 ± 0.0038.

For UCCUCCUACACCUUGCAUAGUAUUUAGUUA, the “pre-steady-state target cleavage rate” value by setting is: under setting [1], 0.863 ± 0.046; under setting [2], 0.0435 ± 0.0061.

In the case of UCCUGGAACAGCUUGCAUAGUAUUAGUUA, the “pre-steady-state target cleavage rate” value runs as follows: under setting [1], 0.0655 ± 0.01; under setting [2], 0.00281 ± 0.0023.

UCGACCAACAGCUUGCAUAGUAUUUAGUAA: the “pre-steady-state target cleavage rate” value under setting [1] is 1.2 ± 0.065 and the “pre-steady-state target cleavage rate” value under setting [2] was found to be 0.0413 ± 0.0084.

Consider UCCUGCUACAGCAUGCAUAGUAUAUAGUUA, for which the “pre-steady-state target cleavage rate” value by setting is: under setting [1], 0.718 ± 0.082; under setting [2], 0.00874 ± 0.0032.

UCCUGGAUGUGCUUGCAGAGUAUUUAGUUA: the “pre-steady-state target cleavage rate” value turned out to be 0.0473 ± 0.0088 under setting [1] and 0.0137 ± 0.0038 under setting [2].

Regarding UCCUGGAUGUGCUUCGCAUAGUAUUUAGUUA, the “pre-steady-state target cleavage rate” value by setting is: under setting [1], 0.147 ± 0.022; under setting [2], 0.00765 ± 0.0033.

AGGACCUACAGCUUGCAUAGUUAAUAGUAA: the “pre-steady-state target cleavage rate” value under setting [1] was 0.309 ± 0.083 and the “pre-steady-state target cleavage rate” value under setting [2] worked out at 0.00412 ± 0.0029.

In the case of UGGACCUACAGCUUGCAAAGUAUUAAGUUA, the “pre-steady-state target cleavage rate” value was 0.723 ± 0.052 under setting [1] and 0.00967 ± 0.0035 under setting [2].

For the sequence AGGACCUUGAGCUUGCAUAGUAUUUAGUUA, the “pre-steady-state target cleavage rate” value stood at 1.18 ± 0.081 under setting [1] and 0.0761 ± 0.016 under setting [2].

With UCCUGGAUGAGCUUGCAUAGUUUUUAGAUA, the “pre-steady-state target cleavage rate” value by setting is: under setting [1], 0.0373 ± 0.011; under setting [2], 0.00756 ± 0.0031.

As for UCCUGGAUGUGCUUGCAUAGUAUUUAAGUUA, the “pre-steady-state target cleavage rate” value under setting [1] amounted to 0.29 ± 0.022 and the “pre-steady-state target cleavage rate” value under setting [2] was 0.0278 ± 0.0082.

Consider UCCUGGAUCUGCUUGCAUAGUAUUUACUUA, for which the “pre-steady-state target cleavage rate” value worked out at 0.148 ± 0.015 under setting [1] and 0.018 ± 0.0039 under setting [2].

As for UCCUGCUACUGCUUGCAUUGUAUUUAGUUA, the “pre-steady-state target cleavage rate” value was found to be 0.68 ± 0.048 under setting [1] and 0.0235 ± 0.0049 under setting [2].

Turning to UCCUGGAUGACCUUGCAUAGUAUUUACAAA, the “pre-steady-state target cleavage rate” value reads like this: under setting [1], 0.014 ± 0.0052; under setting [2], 0.00383 ± 0.0034.

Regarding UCCUGGAUGUGACUUGCAUAGUAUUUAGUUA, the “pre-steady-state target cleavage rate” value by setting is: under setting [1], 0.389 ± 0.038; under setting [2], 0.03 ± 0.0086.

As for UCCUGGAUGUGCUUGCAUUGUAUAUAGUUA, the “pre-steady-state target cleavage rate” value stood at 0.00712 ± 0.0026 under setting [1] and 0.0048 ± 0.0032 under setting [2].

As for UCCACCUACGGCUUGCAUAGUAUUUAGUUA, the “pre-steady-state target cleavage rate” value is, setting by setting: under setting [1], 0.921 ± 0.074; under setting [2], 0.0494 ± 0.01.

As for UCCUGCUACUGCUUGCAUAGUAUUUAGAUA, the “pre-steady-state target cleavage rate” value was determined as 0.192 ± 0.032 under setting [1] and 0.00766 ± 0.002 under setting [2].

With UGGACCUAGAGCUUGCAUAGUAUUUUCAAA, the “pre-steady-state target cleavage rate” value was 0.16 ± 0.026 under setting [1] and 0.00346 ± 0.0032 under setting [2].

Consider UCCUGGUACAGCAUGGAUAGUAUUUAGUUA, for which the “pre-steady-state target cleavage rate” value reads like this: under setting [1], 0.573 ± 0.042; under setting [2], 0.0146 ± 0.0039.

UCGACCUUCAGCUUGCAUAGUUUUUAGUUA: the “pre-steady-state target cleavage rate” value came to 0.497 ± 0.024 under setting [1] and 0.0302 ± 0.0072 under setting [2].

Take UCCUGGAUGUGCUUGCAUAGAAUUUAGUUA: the “pre-steady-state target cleavage rate” value by setting is: under setting [1], 0.0382 ± 0.0079; under setting [2], 0.00918 ± 0.0029.

As for UCCUCCUACAGCUUGCAUAGUAUUUAGCUUA, the “pre-steady-state target cleavage rate” value was found to be 0.3 ± 0.076 under setting [1] and 0.00624 ± 0.0037 under setting [2].

As for UCGACCUACAGCUUGCUUACUAUUUAGUUA, the “pre-steady-state target cleavage rate” value came out at 0.533 ± 0.021 under setting [1] and 0.0125 ± 0.0031 under setting [2].

On to UCCUGGAUGUCCUUGCAUAGUAUUUAGUCA, for which the “pre-steady-state target cleavage rate” value under setting [1] stood at 0.0473 ± 0.011 and the “pre-steady-state target cleavage rate” value under setting [2] came to 0.00568 ± 0.0021.
